# Some of the results follow.
# B1: RS-IIL (Ralstonia solanacearum) (protein)
# chain: AQQGVFTLPANTSFGVTAFANAANTQTIQVLVDNVVKATFTGSGTSDKLLGSQVLNSGSGAIKIQVSVNGKPSDLVSNQTILANKLNFAMVGSEDGTDNDYNDGIAVLNWPLG
# Assays:
# Experiment in all cases: glycan array binding signal (z-score within array); higher = stronger binding
# Conditions in all cases: glycan notation: IUPAC condensed, linker removed
# [1] = target: Gal(b1-3)[Fuc(a1-4)]GlcNAc(b1-3)Gal(b1-4)[Fuc(a1-3)]GlcNAc
# Procedure, shortened: (§1)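 The binding signal is a Z-score computed within each array and averaged over linkers. Arrays of the same protein sequence at different concentrations or buffers were also averaged together. Data originate from 3228 arrays in the Consortium for Functional Glycomics database, kept only where the protein sequence was available.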
# [2] = target: Gal(b1-3)[GlcNAc(b1-6)]GalNAc
# Procedure, shortened: as §1
# [3] = target: Gal(b1-3)[Neu5Ac(a2-6)]GalNAc
# Procedure, shortened: as §1
# [4] = target: Gal(b1-3)[Neu5Ac(a2-6)]GlcNAc(b1-6)Gal(b1-4)Glc
# Procedure, shortened: as §1
# [5] = target: Gal(b1-3)[Neu5Ac(b2-6)]GalNAc
# Procedure, shortened: as §1
# [6] = target: Gal(b1-4)GalNAc(a1-3)[Fuc(a1-2)]Gal(b1-4)GlcNAc
# Procedure, shortened: as §1
# [7] = target: Gal(b1-4)GalNAc(b1-3)[Fuc(a1-2)]Gal(b1-4)GlcNAc
# Procedure, shortened: as §1
# Gal(b1-4)Glc = target: Gal(b1-4)Glc
# Procedure, shortened: as §1
# Gal(b1-4)Glc6S = target: Gal(b1-4)Glc6S
# Procedure, shortened: as §1
# Gal(b1-4)GlcNAc = target: Gal(b1-4)GlcNAc
# Procedure, shortened: as §1
# [8] = target: Gal(b1-4)GlcNAc(b1-2)Man(a1-3)[Gal(b1-4)GlcNAc(b1-2)Man(a1-6)]Man(b1-4)GlcNAc(b1-4)GlcNAc
# Procedure, shortened: as §1
# [9] = target: Gal(b1-4)GlcNAc(b1-3)Gal(b1-4)Glc
# Procedure, shortened: as §1
# [10] = target: Gal(b1-4)GlcNAc(b1-3)Gal(b1-4)GlcNAc
# Procedure, shortened: as §1
# [11] = target: Gal(b1-4)GlcNAc(b1-3)Gal(b1-4)GlcNAc(b1-3)Gal(b1-4)GlcNAc
# Procedure, shortened: as §1
# [12] = target: Gal(b1-4)GlcNAc(b1-3)Gal(b1-4)[Fuc(a1-3)]GlcNAc(b1-3)Gal(b1-4)[Fuc(a1-3)]GlcNAc
# Procedure, shortened: as §1
# [13] = target: Gal(b1-4)GlcNAc(b1-3)GalNAc
# Procedure, shortened: as §1
# [14] = target: Gal(b1-4)GlcNAc(b1-3)[Gal(b1-4)GlcNAc(b1-6)]GalNAc
# Procedure, shortened: as §1
# [15] = target: Gal(b1-4)GlcNAc(b1-6)Gal(b1-4)GlcNAc(b1-6)GalNAc
# Procedure, shortened: as §1
# [16] = target: Gal(b1-4)GlcNAc(b1-6)GalNAc
# Procedure, shortened: as §1
# [17] = target: Gal(b1-4)GlcNAc(b1-6)[Gal(b1-3)]GalNAc
# Procedure, shortened: as §1
# Gal3S(b1-3)GalNAc = target: Gal3S(b1-3)GalNAc
# Procedure, shortened: as §1
# Gal3S(b1-3)GlcNAc = target: Gal3S(b1-3)GlcNAc
# Procedure, shortened: as §1
# [18] = target: Gal3S(b1-3)[Fuc(a1-4)]GlcNAc
# Procedure, shortened: as §1
# Gal3S(b1-4)Glc = target: Gal3S(b1-4)Glc
# Procedure, shortened: as §1
# Gal3S(b1-4)Glc6S = target: Gal3S(b1-4)Glc6S
# Procedure, shortened: as §1
# Gal3S(b1-4)GlcNAc = target: Gal3S(b1-4)GlcNAc
# Procedure, shortened: as §1
# Gal3S(b1-4)GlcNAc6S = target: Gal3S(b1-4)GlcNAc6S
# Procedure, shortened: as §1
# Gal3S6S(b1-4)GlcNAc = target: Gal3S6S(b1-4)GlcNAc
# Procedure, shortened: as §1
# Gal3S6S(b1-4)GlcNAc6S = target: Gal3S6S(b1-4)GlcNAc6S
# Procedure, shortened: as §1
# Gal4S(b1-4)GlcNAc = target: Gal4S(b1-4)GlcNAc
# Procedure, shortened: as §1
# Gal4S6S(b1-4)GlcNAc = target: Gal4S6S(b1-4)GlcNAc
# Procedure, shortened: as §1
# Gal6S(b1-4)Glc = target: Gal6S(b1-4)Glc
# Procedure, shortened: as §1
# Gal6S(b1-4)Glc6S = target: Gal6S(b1-4)Glc6S
# Procedure, shortened: as §1
# Gal6S(b1-4)GlcNAc = target: Gal6S(b1-4)GlcNAc
# Procedure, shortened: as §1
# GalNAc(a1-3)Gal = target: GalNAc(a1-3)Gal
# Procedure, shortened: as §1
# GalNAc(a1-3)GalNAc = target: GalNAc(a1-3)GalNAc
# Procedure, shortened: as §1
# [19] = target: GalNAc(b1-3)Gal(a1-4)Gal(b1-4)GlcNAc
# Procedure, shortened: as §1
# GalNAc(b1-3)GalNAc = target: GalNAc(b1-3)GalNAc
# Procedure, shortened: as §1
# GalNAc(b1-4)GlcNAc = target: GalNAc(b1-4)GlcNAc
# Procedure, shortened: as §1
# Glc(a1-4)Glc = target: Glc(a1-4)Glc
# Procedure, shortened: as §1
# Glc(a1-6)Glc(a1-6)Glc = target: Glc(a1-6)Glc(a1-6)Glc
# Procedure, shortened: as §1
# Glc(b1-4)Glc = target: Glc(b1-4)Glc
# Procedure, shortened: as §1
# Glc(b1-6)Glc = target: Glc(b1-6)Glc
# Procedure, shortened: as §1
# GlcA(b1-3)Gal = target: GlcA(b1-3)Gal
# Procedure, shortened: as §1
# GlcA(b1-6)Gal = target: GlcA(b1-6)Gal
# Procedure, shortened: as §1
# [20] = target: GlcNAc(a1-3)Gal(b1-4)GlcNAc
# Procedure, shortened: as §1
# [21] = target: GlcNAc(a1-6)Gal(b1-4)GlcNAc
# Procedure, shortened: as §1
# [22] = target: GlcNAc(b1-2)Gal(b1-3)GalNAc
# Procedure, shortened: as §1
# [23] = target: GlcNAc(b1-2)Man(a1-3)[GlcNAc(b1-2)Man(a1-6)]Man(b1-4)GlcNAc(b1-4)GlcNAc
# Procedure, shortened: as §1
# GlcNAc(b1-3)Gal = target: GlcNAc(b1-3)Gal
# Procedure, shortened: as §1
# [24] = target: GlcNAc(b1-3)Gal(b1-3)GalNAc
# Procedure, shortened: as §1
# GlcNAc(b1-3)Gal(b1-4)Glc = target: GlcNAc(b1-3)Gal(b1-4)Glc
# Procedure, shortened: as §1
# [25] = target: GlcNAc(b1-3)Gal(b1-4)GlcNAc
# Procedure, shortened: as §1
# [26] = target: GlcNAc(b1-3)Gal(b1-4)GlcNAc(b1-3)Gal(b1-4)GlcNAc
# Procedure, shortened: as §1
# GlcNAc(b1-3)GalNAc = target: GlcNAc(b1-3)GalNAc
# Procedure, shortened: as §1
# [27] = target: GlcNAc(b1-3)[GlcNAc(b1-6)]Gal(b1-4)GlcNAc
# Procedure, shortened: as §1
# [28] = target: GlcNAc(b1-3)[GlcNAc(b1-6)]GalNAc
# Procedure, shortened: as §1
# [29] = target: GlcNAc(b1-3)[GlcNAc(b1-6)]GlcNAc(b1-4)GlcNAc
# Procedure, shortened: as §1
# [30] = target: GlcNAc(b1-4)Gal(b1-4)GlcNAc
# Procedure, shortened: as §1
# [31] = target: GlcNAc(b1-4)GlcNAc(b1-4)GlcNAc
# Procedure, shortened: as §1
binder,measurement,setting,value
B1,glycan array binding signal (z-score),[1],0.765
same,glycan array binding signal (z-score),[2],-0.389
same,glycan array binding signal (z-score),[3],-0.381
same,glycan array binding signal (z-score),[4],-0.384
same,glycan array binding signal (z-score),[5],-0.388
same,glycan array binding signal (z-score),[6],-0.358
same,glycan array binding signal (z-score),[7],-0.378
same,glycan array binding signal (z-score),Gal(b1-4)Glc,-0.387
same,glycan array binding signal (z-score),Gal(b1-4)Glc6S,-0.387
same,glycan array binding signal (z-score),Gal(b1-4)GlcNAc,-0.386
same,glycan array binding signal (z-score),[8],-0.277
same,glycan array binding signal (z-score),[9],-0.377
same,glycan array binding signal (z-score),[10],-0.388
same,glycan array binding signal (z-score),[11],-0.387
same,glycan array binding signal (z-score),[12],-0.014
same,glycan array binding signal (z-score),[13],-0.389
same,glycan array binding signal (z-score),[14],-0.389
same,glycan array binding signal (z-score),[15],-0.388
same,glycan array binding signal (z-score),[16],-0.389
same,glycan array binding signal (z-score),[17],-0.388
same,glycan array binding signal (z-score),Gal3S(b1-3)GalNAc,-0.384
same,glycan array binding signal (z-score),Gal3S(b1-3)GlcNAc,-0.382
same,glycan array binding signal (z-score),[18],0.761
same,glycan array binding signal (z-score),Gal3S(b1-4)Glc,-0.382
same,glycan array binding signal (z-score),Gal3S(b1-4)Glc6S,-0.384
same,glycan array binding signal (z-score),Gal3S(b1-4)GlcNAc,-0.385
same,glycan array binding signal (z-score),Gal3S(b1-4)GlcNAc6S,-0.38
same,glycan array binding signal (z-score),Gal3S6S(b1-4)GlcNAc,-0.388
same,glycan array binding signal (z-score),Gal3S6S(b1-4)GlcNAc6S,-0.385
same,glycan array binding signal (z-score),Gal4S(b1-4)GlcNAc,-0.384
same,glycan array binding signal (z-score),Gal4S6S(b1-4)GlcNAc,-0.386
same,glycan array binding signal (z-score),Gal6S(b1-4)Glc,-0.378
same,glycan array binding signal (z-score),Gal6S(b1-4)Glc6S,-0.386
same,glycan array binding signal (z-score),Gal6S(b1-4)GlcNAc,-0.388
same,glycan array binding signal (z-score),GalNAc(a1-3)Gal,-0.387
same,glycan array binding signal (z-score),GalNAc(a1-3)GalNAc,-0.381
same,glycan array binding signal (z-score),[19],-0.381
same,glycan array binding signal (z-score),GalNAc(b1-3)GalNAc,-0.382
same,glycan array binding signal (z-score),GalNAc(b1-4)GlcNAc,-0.386
same,glycan array binding signal (z-score),Glc(a1-4)Glc,-0.266
same,glycan array binding signal (z-score),Glc(a1-6)Glc(a1-6)Glc,-0.304
same,glycan array binding signal (z-score),Glc(b1-4)Glc,-0.276
same,glycan array binding signal (z-score),Glc(b1-6)Glc,-0.383
same,glycan array binding signal (z-score),GlcA(b1-3)Gal,-0.387
same,glycan array binding signal (z-score),GlcA(b1-6)Gal,-0.274
same,glycan array binding signal (z-score),[20],-0.388
same,glycan array binding signal (z-score),[21],-0.356
same,glycan array binding signal (z-score),[22],-0.385
same,glycan array binding signal (z-score),[23],-0.255
same,glycan array binding signal (z-score),GlcNAc(b1-3)Gal,-0.388
same,glycan array binding signal (z-score),[24],-0.388
same,glycan array binding signal (z-score),GlcNAc(b1-3)Gal(b1-4)Glc,-0.383
same,glycan array binding signal (z-score),[25],-0.387
same,glycan array binding signal (z-score),[26],-0.389
same,glycan array binding signal (z-score),GlcNAc(b1-3)GalNAc,-0.389
same,glycan array binding signal (z-score),[27],-0.382
same,glycan array binding signal (z-score),[28],-0.382
same,glycan array binding signal (z-score),[29],-0.389
same,glycan array binding signal (z-score),[30],-0.389
same,glycan array binding signal (z-score),[31],-0.388

# — the supplement of paper PMC8728848
